Experimental data as given in the supplement of paper PMC12009370.
This is one part of the list. Single values are uncertain, as repeats are few or missing.

Tests used:
IMR-32 [1] = test: drug sensitivity score (DSS), single drug with vehicle (DSS (score)); higher = more cytotoxic; extreme values may be limits of the assay; conditions: 72 h; co-treatment: vehicle (DMSO)
SK-N-AS [2] = test: as above; conditions: 72 h; co-treatment: vehicle (DMSO)
SK-N-AS [3] = test: drug sensitivity score (DSS) in combination with SL-176 (DSS (score)); higher = more cytotoxic; extreme values may be limits of the assay; conditions: 72 h; co-treatment: SL-176 11.2 uM (IC25 in IMR-32)
IMR-32 [4] = test: as above; conditions: 72 h; co-treatment: SL-176 11.2 uM (IC25 in IMR-32)
SK-N-AS [5] = test: drug sensitivity score (DSS) in combination with GSK2830371 (DSS (score)); neuroblastoma lines; SL-176 and GSK2830371 are WIP1 inhibitors; higher = more cytotoxic; extreme values may be limits of the assay; conditions: 72 h; co-treatment: GSK2830371 at IC25 in IMR-32
IMR-32 [6] = test: as above; conditions: 72 h; co-treatment: GSK2830371 at IC25 in IMR-32
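Wherever drug sensitivity score (DSS) in combination with GSK2830371 is given: neuroblastoma cells in 384-well plates, each compound at five concentrations, luminescence read-out, DSS derived from fitted concentration-response curve combining IC50 with minimum and maximum inhibition.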
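Wherever drug sensitivity score (DSS) in combination with SL-176 is given: cells in 384-well plates, luminescence read-out, each screening drug at five concentrations, DSS derived from the fitted concentration-response curve combining IC50 with minimum and maximum inhibition.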
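Wherever drug sensitivity score (DSS), single drug with vehicle is given: 384-well screen with five concentrations per compound and a luminescence read-out, DSS computed from the fitted dose-response curve combining IC50 with minimum and maximum inhibition.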

SMILES | drug sensitivity score (IMR-32 [1]) | drug sensitivity score (SK-N-AS [2]) | drug sensitivity score (SK-N-AS [3]) | drug sensitivity score (IMR-32 [4]) | drug sensitivity score (SK-N-AS [5]) | drug sensitivity score (IMR-32 [6])
CC1CCC(n2c3cnccc3c3cnc(Nc4ccc5c(n4)CCN(C(=O)CO)C5)nc32)CC1 (stereo not given) | 2.3 | 5.1 | 4.4 | 0 | 5.4 | 4
CC(=O)O[C@@]12CO[C@@H]1C[C@H](O)[C@@]1(C)C(=O)[C@H](O)C3=C(C)[C@@H](OC(=O)[C@H](O)[C@@H](NC(=O)OC(C)(C)C)c4ccccc4)C[C@@](O)([C@@H](OC(=O)c4ccccc4)[C@H]21)C3(C)C [Docetaxel] | 41.7 | 26.8 | 25.3 | 42.4 | 27 | 42.5
O=c1[nH]cc(F)c(=O)[nH]1 [Fluorouracil] | 9.6 | 3 | 3.4 | 9.8 | 3.7 | 11.8
CON(C)C(=O)N1N=C(c2cc(F)ccc2F)S[C@@]1(CCCN)c1ccccc1 [Filanesib] | 23.2 | 22.2 | 23.5 | 26.7 | 22.2 | 27.9
COc1cc2ncnc(Oc3cccc(NC(=O)Nc4cc(C(C)(C)C(F)(F)F)on4)c3)c2cc1OC | 0 | 3.8 | 3 | 0.2 | 5.1 | 0
CC(C)Oc1ccc(-c2nn([C@@H](C)c3oc4ccc(F)cc4c(=O)c3-c3cccc(F)c3)c3ncnc(N)c23)cc1F | 0 | 0 | 0 | 15.5 | 0 | 0.2
N[C@@H]1CCCN(c2c(/C=C3\SC(=O)NC3=O)cccc2-c2ccccc2)C1 | 8.9 | 0.9 | 0.1 | 12.5 | 1.3 | 13
CNS(=O)(=O)Nc1nccc(Cc2c(C)c3ccc(Oc4ncccn4)cc3oc2=O)c1F | 0 | 4 | 4.1 | 0 | 4.6 | 3.3
CC1=C(/C=C/C(C)=C/C=C/C(C)=C/C(=O)O)C(C)(C)CCC1 [Tretinoin] | 0 | 0 | 0.8 | 0 | 0.2 | 1.8
CC(C)(O)CNc1nc(Nc2ccnc(C(F)(F)F)c2)nc(-c2cccc(C(F)(F)F)n2)n1 [Enasidenib] | 0 | 0.4 | 0.8 | 0.3 | 0.3 | 0
O=C1CCC(N2C(=O)c3ccccc3C2=O)C(=O)N1 (stereo not given) [Thalidomide] | 0 | 0 | 0 | 0 | 0 | 0
CO[C@H]1CC[C@H](N2C(=O)CNc3ncc(-c4ccc(C(C)(C)O)nc4)nc32)CC1 | 8.7 | 6.2 | 5.2 | 7 | 6.5 | 8.2
COc1cc(Nc2c(C#N)cnc3cc(OCCCN4CCN(C)CC4)c(OC)cc23)c(Cl)cc1Cl [Bosutinib] | 6.9 | 9.3 | 8.9 | 7.4 | 9.4 | 7.1
CC[C@@]1(O)C(=O)OCc2c1cc1n(c2=O)Cc2cc3c(CN(C)C)c(O)ccc3nc2-1 [Topotecan] | 32.2 | 10.7 | 11.1 | 34.2 | 13.6 | 37.9
O=C(Nc1c[nH]nc1-c1nc2ccc(CN3CCOCC3)cc2[nH]1)NC1CC1 | 21.4 | 5 | 4.6 | 19.2 | 6.2 | 23.6
COc1cc(N2CCN(C)CC2)ccc1Nc1nccc(-c2cn(C)c3cnccc23)n1 | 8.8 | 5.2 | 4.9 | 6.6 | 6.5 | 8.6
Nc1cc(F)ccc1NC(=O)/C=C/c1cnn(C/C=C/c2ccccc2)c1 | 7.3 | 4 | 3.9 | 5.5 | 3.6 | 9.3
CCN(c1cc(-c2ccc(CN3CCOCC3)cc2)cc(C(=O)NCc2c(C)cc(C)[nH]c2=O)c1C)C1CCOCC1 [Tazemetostat] | 0.2 | 0 | 0 | 0 | 0 | 1.6
CCCCC(=O)OCC(=O)[C@]1(O)Cc2c(O)c3c(c(O)c2[C@@H](O[C@H]2C[C@H](NC(=O)C(F)(F)F)[C@H](O)[C@H](C)O2)C1)C(=O)c1c(OC)cccc1C3=O [Valrubicin] | 22.4 | 7.6 | 8.4 | 23.7 | 8.3 | 29.4
C=CC(=O)N1CC/C(=C\c2ccc(F)c([N+](=O)[O-])c2)C(=O)/C(=C/c2ccc(F)c([N+](=O)[O-])c2)C1 | 25.3 | 26.3 | 24.9 | 28.1 | 26.2 | 26.9
Cc1cc(Nc2ncnc3ccc(NC4=NC(C)(C)CO4)cc23)ccc1Oc1ccn2ncnc2c1 [Tucatinib] | 0 | 0 | 0 | 0 | 0 | 0
CC1(C)CC[C@]2(NC(=O)C(C)(F)F)CC[C@]3(C)[C@H](C(=O)C=C4[C@@]5(C)C=C(C#N)C(=O)C(C)(C)[C@@H]5CC[C@]43C)[C@@H]2C1 [Omaveloxolone] | 20.2 | 17.5 | 19.3 | 20.4 | 18.3 | 18.5
Cn1nccc1Nc1nccc(-c2ccn([C@H](CO)c3ccc(Cl)c(F)c3)c(=O)c2)n1 [Ravoxertinib] | 5.8 | 11 | 11.5 | 6.5 | 10.2 | 16.2

SMILES | drug sensitivity score (IMR-32 [1]) | drug sensitivity score (SK-N-AS [2]) | drug sensitivity score (SK-N-AS [3]) | drug sensitivity score (IMR-32 [4]) | drug sensitivity score (SK-N-AS [5]) | drug sensitivity score (IMR-32 [6])
O=C(NOC[C@H](O)CO)c1ccc(F)c(F)c1Nc1ccc(I)cc1F | 0 | 20.4 | 20.3 | 0.5 | 21.3 | 0
C[C@@H](Oc1cc(-n2cnc3ccc(CN4CCN(C)CC4)cc32)sc1C(N)=O)c1ccccc1C(F)(F)F | 36.6 | 33.6 | 34.5 | 39.8 | 34.6 | 36.3
C[C@@H](Oc1cc(-c2cnn(C3CCNCC3)c2)cnc1N)c1c(Cl)ccc(F)c1Cl [Crizotinib] | 0 | 0 | 0.2 | 0.7 | 0.2 | 2.3
CN1CC[C@@H](NC(=O)Nc2ccc(C#N)cc2)C[C@@H]1c1nc2ccccc2[nH]1 [Glasdegib] | 0 | 0 | 0 | 0 | 0 | 0
CNC(=O)[C@@H](NC(=O)[C@H](CC(C)C)[C@H](O)C(=O)NO)C(C)(C)C [Marimastat] | 0 | 0.4 | 0 | 10 | 0.6 | 0
CO[C@H]1C[C@@H]2CC[C@@H](C)[C@@](O)(O2)C(=O)C(=O)N2CCCC[C@H]2C(=O)O[C@H]([C@H](C)C[C@@H]2CC[C@@H](OP(C)(C)=O)[C@H](OC)C2)CC(=O)[C@H](C)/C=C(\C)[C@@H](O)[C@@H](OC)C(=O)[C@H](C)C[C@H](C)/C=C/C=C/C=C/1C [Ridaforolimus] | 7.2 | 9.8 | 9.3 | 3.8 | 11.3 | 11.5
CC(C)N(C[C@H]1O[C@@H](n2cnc3c(N)ncnc32)[C@H](O)[C@@H]1O)[C@H]1C[C@@H](CCc2nc3cc(C(C)(C)C)ccc3[nH]2)C1 [Pinometostat] | 0 | 0 | 0 | 0 | 0 | 0
Nc1nc(OCc2cc(Br)cs2)c2[nH]cnc2n1 [Lomeguatrib] | 0 | 0 | 0 | 0 | 0 | 0
CC(C)(C)C[C@@H]1N[C@@H](C(=O)N[C@H]2CC[C@H](O)CC2)[C@H](c2cccc(Cl)c2F)[C@]12C(=O)Nc1cc(Cl)ccc12 | 19.9 | 0 | 0.7 | 22.3 | 0.2 | 27
NS(=O)(=O)OC[C@@H]1C[C@@H](n2ccc3c(N[C@H]4CCc5ccccc54)ncnc32)C[C@@H]1O [Pevonedistat] | 26.4 | 7.4 | 8.6 | 26 | 9.5 | 29.8
CC(C)[C@H](C(=O)Nc1ccc(C(=O)NO)cc1)c1ccccc1 | 20.7 | 16.9 | 15.8 | 20.5 | 16.3 | 21.7
CO[C@H]1C[C@@H]2CC[C@@H](C)[C@@](O)(O2)C(=O)C(=O)N2CCCC[C@H]2C(=O)O[C@H]([C@H](C)C[C@@H]2CC[C@@H](OC(=O)C(C)(CO)CO)[C@H](OC)C2)CC(=O)[C@H](C)/C=C(\C)[C@@H](O)[C@@H](OC)C(=O)[C@H](C)C[C@H](C)/C=C/C=C/C=C/1C [Temsirolimus] | 13.7 | 11.3 | 10.8 | 6.8 | 11.6 | 12.4
CC(C)(C)c1cnc(CSc2cnc(NC(=O)C3CCNCC3)s2)o1 | 25.5 | 20.3 | 19.1 | 28.9 | 19.7 | 27
C[C@H]1C[C@@H](n2c(Nc3ccc(OC(F)(F)F)cc3)nc3cc(CCC(=O)O)ccc32)CC(C)(C)C1 | 0 | 0 | 0 | 14.6 | 0 | 0.4
OC[C@H]1O[C@@H](n2cnc3c2N=CNC[C@H]3O)C[C@@H]1O [Pentostatin] | 0 | 0 | 0 | 0 | 0 | 0
O=C(NC1CCNCC1)c1n[nH]cc1NC(=O)c1c(Cl)cccc1Cl | 18.1 | 14.8 | 15.4 | 17.5 | 15.3 | 20.2
CCn1c(C(=O)N(C2CC2)C2CC2)cc2c3c(ncn3C)c(Nc3cc(C)n(C)n3)nc21 | 1.7 | 1.9 | 0.4 | 0 | 1 | 0.4
CN1CCN(C(=O)c2ccc3cc(CCNc4ncnc5ccc(C#N)cc45)ccc3c2)CC1 [Senexin B] | 4.9 | 0.2 | 0 | 3.6 | 0.5 | 7.4
CC[C@@H]1CN(C(=O)NCC(F)(F)F)C[C@@H]1c1cnc2cnc3[nH]ccc3n12 [Upadacitinib] | 0 | 0 | 0 | 0 | 0 | 0
Cc1cc(Nc2cc(N3CCN(C)CC3)nc(/C=C/c3ccccc3)n2)n[nH]1 | 20.8 | 11.7 | 11.2 | 19.8 | 11.9 | 19.4
O=C1c2c(O)ccc(O)c2C(=O)c2c(NCCNCCO)ccc(NCCNCCO)c21 [Mitoxantrone] | 31.3 | 7.4 | 7.1 | 32.2 | 7.3 | 31.4
Nc1nc(F)nc2c1ncn2[C@@H]1O[C@H](CO)[C@@H](O)[C@@H]1O [Fludarabine] | 6.5 | 0.1 | 0 | 4.6 | 0 | 5.6
